Laboratory results reported in article PMC4336329 (PLoS ONE, 2015).
Out of some 310,000 compounds screened, about 2,200 (0.71%) showed an effect of 50% or more. The effect is printed as a negative number. The list shows a part of the results.

The compounds below were run against human ether-à-go-go-related gene (hERG) potassium channel (human, UniProt Q12809) (assay: primary screen, population patch clamp on CHO cells stably expressing hERG).
human ether-à-go-go-related gene (hERG) potassium channel, sequence (Q12809 whole entry, looked up): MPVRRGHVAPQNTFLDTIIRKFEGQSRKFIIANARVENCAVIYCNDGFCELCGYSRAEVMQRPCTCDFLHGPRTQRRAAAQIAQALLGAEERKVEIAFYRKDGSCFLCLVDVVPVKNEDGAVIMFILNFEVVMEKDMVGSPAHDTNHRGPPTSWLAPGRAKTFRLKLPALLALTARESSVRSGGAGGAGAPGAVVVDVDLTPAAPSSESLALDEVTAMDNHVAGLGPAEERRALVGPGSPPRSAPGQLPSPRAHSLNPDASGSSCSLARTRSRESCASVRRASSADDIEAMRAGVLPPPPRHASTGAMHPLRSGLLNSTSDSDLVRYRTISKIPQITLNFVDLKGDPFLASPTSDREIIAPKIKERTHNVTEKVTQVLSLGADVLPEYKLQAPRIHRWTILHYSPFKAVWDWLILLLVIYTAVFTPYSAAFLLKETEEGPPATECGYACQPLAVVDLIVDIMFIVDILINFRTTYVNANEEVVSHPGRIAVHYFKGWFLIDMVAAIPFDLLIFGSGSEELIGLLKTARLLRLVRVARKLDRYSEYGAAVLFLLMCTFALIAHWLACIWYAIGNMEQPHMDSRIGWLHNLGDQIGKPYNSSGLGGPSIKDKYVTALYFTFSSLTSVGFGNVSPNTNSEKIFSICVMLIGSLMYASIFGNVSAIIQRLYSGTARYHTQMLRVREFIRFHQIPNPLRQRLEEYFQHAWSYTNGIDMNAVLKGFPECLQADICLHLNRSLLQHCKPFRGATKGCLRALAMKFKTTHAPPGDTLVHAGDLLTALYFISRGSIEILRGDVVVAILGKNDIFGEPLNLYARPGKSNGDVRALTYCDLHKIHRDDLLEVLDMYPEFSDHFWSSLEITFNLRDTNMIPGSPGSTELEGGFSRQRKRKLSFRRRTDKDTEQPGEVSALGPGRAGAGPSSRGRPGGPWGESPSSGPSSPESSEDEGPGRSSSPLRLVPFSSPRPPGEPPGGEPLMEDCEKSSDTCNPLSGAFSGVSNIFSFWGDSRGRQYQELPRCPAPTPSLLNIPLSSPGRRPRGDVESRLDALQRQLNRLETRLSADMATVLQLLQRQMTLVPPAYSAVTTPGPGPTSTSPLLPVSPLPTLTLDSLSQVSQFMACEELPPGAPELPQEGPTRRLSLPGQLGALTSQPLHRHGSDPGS

| SMILES | hERG current change (%, negative = inhibition) at 1uM [%] |
| --- | --- |
| Cc1ccc(S(=O)(=O)Cc2cccc(C(=O)N3CCOCC3)c2)cc1 | 6.39 |
| O=C(Cc1ccccc1)NC1c2ccccc2-c2ccccc21 | 3.07 |
| CCCC(=O)N1CCN(c2ccc([N+](=O)[O-])cc2Cl)CC1 | -9.24 |
| Cc1cc(=O)oc(C)c1C(=O)NCc1ccccn1 | 10.5 |
| COc1ccccc1C(c1nnnn1C(C)(C)C)N1CCN(Cc2ccccc2)CC1.Cl (centres unmarked) | 6.92 |
| COc1ccc(-c2ccc(C#N)c(OC)n2)cc1 | 10.8 |
| COc1ccc(C(=O)C2CCCN(Cc3cccn3-c3ccccn3)C2)c(OC)c1 (centres unmarked) | -82.9 |
| COc1ccc(OC(=O)c2cccc([N+](=O)[O-])c2)c(C(=O)/C=C/c2cccs2)c1 | 0.856 |
| COc1cc(NC(=O)C2CCCN(S(=O)(=O)c3ccc4c(c3)CCCN4C(C)=O)C2)cc(OC)c1 (centres unmarked) | 5.64 |
| CN(C)c1cccc(C(=O)NNC(=S)NC2CCCC2)c1 | 15.2 |
| Cc1nn(Cc2ccc(Cl)cc2Cl)c(C)c1NC(=O)Cn1nc([N+](=O)[O-])c(Cl)c1C | 11.3 |
| COc1ccc(/C=C/C(=O)NC(=S)N2CCN(c3ccccn3)CC2)cc1OC | 11.5 |
| Cc1ccc(C)c(CN2CCC(CNC(=O)Nc3ccc(F)c(Cl)c3)CC2)c1 | -2.57 |
| COc1cccc(C(C(=O)NC2CCCC2)N(Cc2ccco2)C(=O)c2ccco2)c1OC (centres unmarked) | 5.89 |
| COc1ccc(N2CCN(C(=O)CCS(=O)(=O)c3ccc4c(c3)NC(=O)CO4)CC2)cc1 | 8.21 |
| COc1ccc(CCNc2ccc(C(CC(N)=O)NC(=O)Cc3cccc4ccccc34)cc2[N+](=O)[O-])cc1 (centres unmarked) | 3.74 |
| COc1ccc(-c2nc(C)c(C(C)=O)n2O)cc1OC | 7.23 |
| CCCc1cc2c(cc1NC(=O)c1ccc(C(C)(C)C)cc1)OCO2 | 0.511 |
| O=C(OCC(=O)N1CCOCC1)c1ccccc1O | 13.6 |
| COc1cc(C(=O)OCC(=O)NC2CCCC2)cc(NC(=O)c2ccco2)c1OC | 2.43 |
| COC(=O)Nc1snnc1C | 14.4 |
| COc1ccc(CN2CCNC(=O)C2CC(=O)N(C)C2CCOCC2)c(F)c1 (centres unmarked) | 9.73 |
| Cn1c(=O)c2c(nc(Br)n2CCSc2nnnn2-c2ccccc2)n(C)c1=O | -11.9 |

| SMILES | hERG current change (%, negative = inhibition) at 1uM [%] |
| --- | --- |
| Cc1nc(N)nc2c1CCCC2 | 9.49 |
| CCOc1ccc(S(=O)(=O)Nc2ccc(OC)nc2)cc1 | 11.8 |
| CC(C)(C)SC(=O)CC1NS(=O)(=O)OCC1NC(=O)OCC(Cl)(Cl)Cl (centres unmarked) | 8.28 |
| CCC(=O)NCCc1nc2cc(NC(=O)c3ccc(OC)cc3)ccc2n1C | 9.89 |
| Cn1c(=O)c2c(nc(N3CCc4ccccc4C3)n2C)n(C)c1=O | -3.88 |
| Cc1ccc(N(Cc2ccc(C(=O)NC3CCCCC3)cc2)S(C)(=O)=O)cc1C | 2.27 |
| O=C(c1cccc(N2CCCC2=O)c1)N1CCC2(CC1)OCCO2 | 8.95 |
| O=C1CC(N2CCOCC2)C(=O)N1Cc1ccc(N2CCCC2=O)cc1 (centres unmarked) | 1.77 |
| COc1cccc(-c2nc(CS(=O)CC(=O)NCCc3ccccc3)c(C)o2)c1 (centres unmarked) | 12.6 |
| COc1ccc(C2c3ccc4ccccc4c3Oc3ncn(CCO)c(=N)c32)cc1OC (centres unmarked) | -13.9 |
| CN(CC/C=C1/c2ccccc2CSc2ccccc21)CCCO.Cl | 7.3 |
| Cn1c(=O)[nH]c(=O)c2c1nc(Br)n2Cc1cccc(Br)c1 | 14.1 |
| Cc1ccc(CSc2nnc(SCC(=O)N/N=C/C=C/c3ccco3)s2)cc1 | -0.755 |
| CC(CN(C)Cc1ccccc1)OC(=O)c1cccs1.Cl (centres unmarked) | 5.59 |
| Cc1cc2nc(CS(=O)(=O)c3ccccc3)cc(=O)n2[nH]1 | 15.5 |
| Cc1cccc(/N=C/c2c(O)c3ccccc3oc2=O)n1 | 14.6 |
| CSc1nc2nc(C)c(C/C=C/c3ccccc3)c(=O)n2[nH]1 | 14 |
| Cc1ccccc1OCC(=O)Nc1ccc2c(c1)n(C)c(=O)n2C | 5.59 |
| O=C1CCCC(=O)N1c1ccc(NCCOCCO)c([N+](=O)[O-])c1 | 8.63 |
| O=C(c1cccs1)N1C(=O)c2cccc3cccc1c23 | 5.09 |
| CNC(=O)CCC(=O)Nc1ccc(C(=O)OC)cc1 | 6.66 |
| C=CCn1c(SC(C)C(=O)Nc2ccc(F)c(F)c2F)nnc1C1CC1 (centres unmarked) | 5.98 |
| O=[N+]([O-])c1ccc(-n2cccn2)c(-c2nn[nH]n2)c1 | 5.12 |

| SMILES | hERG current change (%, negative = inhibition) at 1uM [%] |
| --- | --- |
| O=C(c1ccccc1Br)N1CCN(c2ccc([N+](=O)[O-])c(N3CCOCC3)c2)CC1 | 6.56 |
| CCOc1ccc(C(Nc2cccnc2)c2cc(Cl)c3cccnc3c2O)cc1 (centres unmarked) | 16 |
| CN1CCN(CCCN(Cc2ccco2)C(=S)Nc2ccc(Cl)cc2)CC1 | -53.8 |
| COc1ccc(C2C(=O)c3ccccc3C2=O)cc1 | 3 |
| O=C(CCC(=O)c1ccc[nH]1)c1ccc(Cl)cc1 | 10.1 |
| COc1ccc(OC)c(C2C(C(=O)Nc3cccnc3)=C(C)NC3=C2C(=O)CCC3)c1 (centres unmarked) | 15.2 |
| O=C(COc1ccccc1[N+](=O)[O-])NCC1(N2CCCCC2)CCCCC1 | -4.91 |
| CCCCC(=O)Nc1ccc(C)c(O)c1 | 1.66 |
| CN(C)CCCNc1oc(-c2ccccc2Cl)nc1S(=O)(=O)c1ccc(F)cc1 | -17.5 |
| Cc1cc(C)cc(N(C(=O)c2nsc(Cl)c2Cl)C(C(=O)NC2CCCC2)c2ccc(O)cc2)c1 (centres unmarked) | 2.1 |
| Cc1ccnc(NS(=O)(=O)c2cccc3nsnc23)c1.Cl | 8.94 |
| O=C(N/N=C/c1ccccn1)c1ccc2nc[nH]c2c1 | 9.86 |
| CC(CCc1ccccc1)NC(=O)c1ccccc1C(=O)O (centres unmarked) | 16.2 |
| Cc1cccc(C(=O)NC(=S)N2CCc3ccccc3C2)c1 | 14.5 |
| CC(C)CC(=O)Nc1nnc(S(=O)(=O)N2CCc3ccccc32)s1 | 5.56 |
| CN(C)c1ccc(-c2nn3c(C4CCCCC4)nnc3s2)cc1 | 0.279 |
| CCOC(=O)c1c(NC(=O)CSc2nnc(-c3c[nH]c4ccccc34)n2CCOC)sc2c1CCCCC2 | 10.5 |
| CCN(C(=O)Cn1cnc2c1c(=O)n(C)c(=O)n2C)C1CCCCC1 | 7.03 |
| Cc1ccccc1-n1c(-c2ccc(Cl)cc2)cnc1SCC(=O)NC1CCS(=O)(=O)C1 (centres unmarked) | 5.68 |
| Cc1ccc(C(=O)Nc2ccccc2-c2ccccc2)cc1S(=O)(=O)Nc1cccc(C)c1C | 12.8 |
| COc1ccc(N2CC(C(=O)Nc3cccnc3)CC2=O)cc1 (centres unmarked) | 17.6 |
| COc1cc(OC)c(-c2cc(C(=O)O)ccc2OC)c(OC)c1 | 16.7 |
| CCOc1cccc(NC(=O)C(Cc2cccs2)c2nn[nH]n2)c1 (centres unmarked) | 6.65 |

| SMILES | hERG current change (%, negative = inhibition) at 1uM [%] |
| --- | --- |
| Cc1ccc(C)c(N2N=C(C(=O)Nc3nccs3)CCC2=O)c1 | 15 |
| COc1cc(C(=O)OCC(=O)c2c[nH]c3ccccc23)ccc1OCC(=O)N1CCOCC1 | 12.7 |
| Cc1ccc(C(CC(=O)N2CCCC2)c2ccccc2)c(O)c1C (centres unmarked) | -14.8 |
| O=C(N/N=C/c1ccccn1)c1ccc(Br)cc1 | -1.71 |
| S=c1[nH]c2ccccc2n2cccc12 | 13.8 |
| Cc1ccc(OCC(O)Cn2c(N3CCCCC3)nc3c2c(=O)[nH]c(=O)n3C)cc1C (centres unmarked) | 15.3 |
| Cc1ccsc1C(=O)OCC(=O)c1ccc(OC(F)F)cc1 | -0.891 |
| Cc1cc(-c2nnc(SCC(=O)Nc3ccccc3F)n2N)n[nH]1 | 16.2 |
| O=C(CSc1ccccc1)NC(=O)NCc1ccccc1 | 12.9 |
| Cc1onc(-c2ccccc2Cl)c1C(=O)N1CC(C)CC(C)C1 (centres unmarked) | 3.09 |
| N#Cc1ccc(C(=O)N2CCN(c3ncccn3)CC2)cc1 | -4.68 |
| CCS(=O)(=O)C(=C1NCCO1)S(=O)(=O)CC | -1.59 |
| COc1ccc(C)cc1NC(=O)NC(C)c1ccncc1 (centres unmarked) | 12.8 |
| CNC(=S)N(CCO)Cc1cc2cc3c(cc2[nH]c1=O)OCO3 | 17.3 |
| CC(=O)c1cccc(S(=O)(=O)Nc2c(C)nn(C)c2C)c1 | 6.45 |
| COc1cc2nc(CN3CCN(S(=O)(=O)c4ccc(C)c(C)c4)CC3)[nH]c(=O)c2cc1OC | 5.69 |
| CC1CCCCC1NC(=O)CN1c2cccc3cccc(c23)S1(=O)=O (centres unmarked) | 6.25 |
| CCc1noc(C)c1C(=O)OCC(=O)NC(C)c1ccccc1 (centres unmarked) | -2.02 |
| CC1CCC(C(C)C)C(OC(=O)Cn2c(COc3ccccc3)[n+](C)c3ccccc32)C1.[Cl-] (centres unmarked) | -54 |
| O=C(CNCc1ccc(Cl)cc1)Nc1ccc2c(c1)OCCO2.O=C(O)C(=O)O | 10.2 |
